# Data published in the supplement of paper PMC10338343.
# ± gives the standard deviation. The list shows a part of the results, in another mix than the full data.
# Test system: MIWI (PIWIL1) piRISC loaded with piRNA #1 (30 nt)
# Assay: pre-steady-state target cleavage rate (min^-1); MIWI and MILI are mouse PIWI proteins and EfPiwi is from a freshwater sponge; tags in brackets are library labels; higher = faster piRNA-guided slicing of the target
# Conditions: guide: piRNA #1 5'p-UGAGGUAGUAGGUUGUAUAGUAUCCAGAGG; auxiliary factor: 500 nM mouse GTSF1
# Summary of the method: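 In Cleave-'n-Seq, a transcribed, DNA-blocked target RNA library (0.1 nM) was combined with 1 nM active affinity-purified piRISC bearing one synthetic guide, with or without 500 nM GTSF1 partner protein. Reactions ran in HEPES–potassium acetate buffer at 33 °C for 0–8 or 0–960 min. Uncleaved targets were sequenced and normalised to depth and to weakly complementary targets, three trials were pooled, and k3 was capped at 0.0001 min^-1. The pre-steady-state cleavage rate was obtained by fitting a burst-and-steady-state model.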
row,Sequence,pre-steady-state target cleavage rate
1,GGAGACCUAUCUAUACUACCUACUACCACA,0.0517 ± 0.013
2,GCACUGGAUACUAUACAACCUACUACCACA,0.895 ± 0.061
3,GGAGACCUAACUAUACAAGGUACUACCUCA,0.0155 ± 0.0045
4,GGAGAGGAUACUAUACAUCCUACUACGUCA,0.0548 ± 0.0098
5,GGAGACCUAACUAUACAACCUAAUACCUCA,0.38 ± 0.042
6,GUUCUGGAUACUAUACAACCUACUACCUCA,1.93 ± 0.11
7,GGUCUGGAUACUAUACAACCUACUACCCCA,0.6 ± 0.1
8,GGAGACGAUACUAUACAACCUACUACCUUCA,1.49 ± 0.094
9,GGAGACCUAACUAUACUACGUACUACCUCA,0.00532 ± 0.0021
10,GGAGACCUAUGAUUAGAUCCUACUACCUCA,< 0.0001
11,GCUCUGGUUACUAUACAACCUACUACCACA,2.3 ± 0.24
12,GGAGACCUAACUAUUGUACCUACUACCUCA,< 0.0001
13,GGAGAGGAAUACUAUACAACCUACUACCUCA,1.32 ± 0.066
14,GGAGACCUAUGAUAUGUUCCUAUUACCUCA,< 0.0001
15,CCUCUGGAUACUAUACAACCAACUACCACA,0.188 ± 0.024
16,GGACUCGAUACUAUACUACCUACUACCUCA,1.3 ± 0.11
17,GGAGACCAUACUAUCACAACCUACUACCUCA,0.936 ± 0.082
18,GCUAUGGAUACUAUACAACCUACUACCUCA,1.93 ± 0.092
19,GGAGACCUAACUAUAGCAACCUACUACCUCA,0.00843 ± 0.0038
20,GGAGACGAUACUAUACAAACUACUACCUCA,0.912 ± 0.039

row,Sequence,pre-steady-state target cleavage rate
1,GGACUGGAUACUAUACAACCUACUUCCUCA,0.0088 ± 0.0024
2,GGAGUGGAUACUAUACUACCUACUAGCUCA,0.305 ± 0.041
3,GGAGACCUAUCAUACAACCUACUACCUCA,0.233 ± 0.065
4,GGAGUGGAUACUAUUCAACCUACUACCUGA,0.347 ± 0.06
5,GGAGUCGAUACUAUACAAGCUACUACCUCA,0.442 ± 0.025
6,GGAGACCUUACUAUACAACCUACAACCUCA,0.776 ± 0.061
7,GGACUGGAUACUAUACAUCCUACUAGCUCA,0.379 ± 0.045
8,GGAGACCUUACUAAACAACGUACUACCUCA,0.0805 ± 0.013
9,GGAGACGAUACAUUACAACCUACUACCUCA,0.973 ± 0.11
10,GGAGUGGAUACAAUACAACCUACUACCUCA,1.46 ± 0.08
11,GGACUGGAUUCUAUACAACCAACUACCUCA,0.106 ± 0.011
12,GGAGACGAUACUAUAGAACCUACUACCACA,0.258 ± 0.045
13,GGAGAGGUAUCUAUACAACCUACUACCUCA,0.488 ± 0.043
14,GGAGACCUUACUAUACAACCUUCUAGCUCA,0.121 ± 0.014
15,GCUCUGGAUUCUAUACAACCUACUACGUCA,0.706 ± 0.068
16,GGACUCGAUACUAUACAACCAACUACCUCA,0.101 ± 0.01
17,GGUGUGGAUACUUUACAACCUACUACCUCA,1.6 ± 0.098
18,GGAGUGGAUACAUUACAACCUACUACCUCA,1.21 ± 0.081
19,GGAGACCUAACUAUACAUCCUACUACCUGA,0.28 ± 0.047
20,CCUCUGGAUACUAUAAAACCUACUACCUCA,1.84 ± 0.11
